Data published in PubChem BioAssay AID624170 (National Center for Advancing Translational Sciences (NCATS), 2012).
The whole screen tested about 410,000 compounds, of which about 850 (0.21%) were called active. Inconclusive means that the source gave no clear call. Such entries were picked first, then a sample of the others. Calls follow the shape of the dose curve; as a rule, active = well fitted inhibition curve with a large enough effect; inconclusive = small, poorly fitted or top-dose-only effect, or another doubt; inactive = no such curve, though single readings can be large or run the other way. No potency is given beside an inconclusive call; the fits are too rough.

target: Glutaminase kidney isoform, mitochondrial (Homo sapiens) (UniProt O94925); test: qHTS for Inhibitors of Glutaminase (GLS); conditions: GLS enzymatic activity, qHTS titration; series mostly up to 45.5 µM; activity change, negative = inhibition: at the top concentration
Sequence of UniProt O94925 (O94925 whole entry, looked up, canonical isoform): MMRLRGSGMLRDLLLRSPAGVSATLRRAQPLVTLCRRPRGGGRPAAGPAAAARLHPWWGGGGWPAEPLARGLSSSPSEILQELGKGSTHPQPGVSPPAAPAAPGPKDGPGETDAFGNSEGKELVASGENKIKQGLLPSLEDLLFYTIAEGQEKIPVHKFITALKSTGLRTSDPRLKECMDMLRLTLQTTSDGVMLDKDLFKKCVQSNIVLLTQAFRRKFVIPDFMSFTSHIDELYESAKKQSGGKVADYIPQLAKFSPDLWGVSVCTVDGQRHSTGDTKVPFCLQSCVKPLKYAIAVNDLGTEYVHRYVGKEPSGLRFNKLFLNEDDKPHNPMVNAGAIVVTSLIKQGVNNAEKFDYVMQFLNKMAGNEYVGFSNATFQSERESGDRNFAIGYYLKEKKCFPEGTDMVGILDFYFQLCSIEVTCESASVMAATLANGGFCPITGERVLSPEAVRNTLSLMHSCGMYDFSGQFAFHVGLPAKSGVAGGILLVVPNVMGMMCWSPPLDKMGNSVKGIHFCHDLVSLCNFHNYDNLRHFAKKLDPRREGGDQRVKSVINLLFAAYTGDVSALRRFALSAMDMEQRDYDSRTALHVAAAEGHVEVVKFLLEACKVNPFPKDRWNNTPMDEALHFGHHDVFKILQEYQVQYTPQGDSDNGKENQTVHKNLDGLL
Summary of the method: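 Compounds were pin-transferred onto hKGA, after which L-glutamine (1 mM solution) and a detection mix of glutamate oxidase, HRP and Amplex Red were added. Initial and 30 min RT fluorescence reads were collected.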
% is scaled to controls: 0 for no effect and ±100 for the full control effect; potency is read from the fitted curve at half-maximal effect; tags tell the direction and shape of the fitted curve.

Structure (SMILES) | Potency | activity change, negative = inhibition
O=C(c1cc(COc2ccc(F)cc2Cl)on1)N1CCCCCCC1 | inconclusive [inhibitor, single point] | –
Cc1cccc(CS(=O)(=O)CC2Nc3ccc(C(=O)NCc4ccccc4)cc3NC2=O)c1 (configuration not stated) | active: 10 µM | –
O=C(CSc1nccn1-c1ccc(Cl)cc1)N1CCCc2ccccc21 | – | inactive: -6.45%
O=C1CC(c2ccccc2)=NN1c1ccc([N+](=O)[O-])cc1 | inconclusive [inhibitor, partial curve, poor fit] | –
CCN(CC)c1ccc(-c2nc3cnccn3c2NC2CCCC2)cc1 | inconclusive [inhibitor, single point] | –
COC(=O)c1ccc(C2NC(C(=O)O)CS2)cc1 (configuration not stated) | – | inactive: 1.74%
COc1cc(/C=C2\SC(=S)N(Nc3ncc(C(F)(F)F)cc3Cl)C2=O)ccc1O | inconclusive [inhibitor, partial curve] | –
Cc1nonc1C(=O)N/N=C/c1ccc(O)cc1O | inconclusive [inhibitor, single point] | –
O=C(CCS(=O)(=O)c1ccc(Br)cc1)NCc1ccc(F)cc1 | inconclusive [inhibitor, single point] | –
O=[N+]([O-])c1ccccc1/C=N\Nc1nccs1 | – | inactive: -15%
CCCCN1CCc2c([nH]c3c(C)cccc23)C1=O | inconclusive [inhibitor, single point] | –
Cc1cc(C)n2nc(SCC(=O)Nc3ccc(O)cc3)nc2n1 | inconclusive [inhibitor, partial curve, poor fit] | –
Cc1ccc(-n2c(=O)c3sccc3n(CC(=O)NCC3CCCO3)c2=O)cc1F (configuration not stated) | inconclusive [inhibitor, single point] | –
CC1CCN(C(=S)NC(=O)c2ccccc2)CC1 | – | inactive: 20.9%
Clc1cccc(N2CCN(c3nc4ccccc4c4nc(-c5cccnc5)nn34)CC2)c1 | – | inactive: 1.23%
CNC1CCCN(c2c(F)cc3c(=O)c(C(=O)O)cn(C4CC4)c3c2OC)C1 (configuration not stated) | – | inactive: -3.77%
CC1=C(C(=O)OCCOC(C)C)C(c2cc3c(cc2Br)OCO3)CC(=O)N1 (configuration not stated) | inconclusive [inhibitor, single point] | –
Cc1nn(-c2cccc(Cl)c2)c2nc(-c3ccco3)cc(C(=O)O)c12 | inconclusive [inhibitor, single point] | –
Cc1cccc2c(N=O)c(O)[nH]c12 | inconclusive [inhibitor, single point] | –
CC(C)CN(C(=O)COC(=O)c1cc2c(s1)CCC2)C1CCS(=O)(=O)C1 (configuration not stated) | inconclusive [inhibitor, partial curve, poor fit] | –
CCCC(=O)N(Cc1cc2ccccc2[nH]c1=O)c1ccccc1OC | inconclusive [inhibitor, single point] | –
COc1cc(/C=C/C(=O)O)cc(S(=O)(=O)NNC(=O)c2ccc3c(c2)OCO3)c1OC | inconclusive [inhibitor, single point] | –
CCOC(=O)N(C)OC(=O)Nc1ccc(Cl)c(Cl)c1 | inconclusive [inhibitor, single point] | –

Structure (SMILES) | Potency | activity change, negative = inhibition
Cc1cccc(NCC(=O)NNC(=S)Nc2ccccc2)c1 | inconclusive [inhibitor, partial curve] | –
Cc1ccc(S(=O)(=O)N(CC(=O)N/N=C/c2ccccc2C(=O)O)c2cc(Cl)cc(Cl)c2)cc1 | inconclusive [inhibitor, single point] | –
Cc1nnc(SCC(=O)NC2CC2)s1 | inconclusive [inhibitor, single point] | –
Oc1ccccc1N1CCN(CC(O)COCc2ccccc2Cl)CC1 (configuration not stated) | – | inactive: 24.8%
CSc1nnc(N2C(=O)C(O)=C(C(=O)c3ccco3)C2c2cccc(Cl)c2)s1 (configuration not stated) | inconclusive [inhibitor, single point] | –
Cc1ccn2cc(-c3nonc3C)cc2c1 | inconclusive [inhibitor, partial curve, poor fit] | –
Cc1[nH]c2ccccc2c1C(=O)CSc1ccc(Cl)cc1 | inconclusive [inhibitor, single point] | –
O=c1[nH]c(/C(Cl)=C/c2cccc(F)c2)nc2cc(C(F)(F)F)ccc12 | – | inactive: 1.09%
O=S(=O)(N/N=C/c1ccc(N2CCOCC2)cc1)c1ccccc1 | inconclusive [inhibitor, partial curve] | –
CC(=O)NCc1ccc(S(=O)(=O)N2CCN(S(=O)(=O)c3ccc4ccccc4c3)CC2)cc1 | – | inactive: 0.975%
Cc1ccc(C(C)C)c(OCC(=O)NNC2=CC(=O)CC(C)(C)C2)c1 | inconclusive [inhibitor, partial curve] | –
CN(C)N1C(N)=C(C#N)C(c2cccc3ccccc23)C2=C1CC(c1ccccc1)CC2=O (configuration not stated) | inconclusive [inhibitor, partial curve, poor fit] | –
COc1ccccc1CN(Cc1cc2cc3c(cc2[nH]c1=O)OCCO3)Cc1nnnn1Cc1ccco1 | inconclusive [inhibitor, single point] | –
COc1ccc(S(=O)(=O)N2CCC(C(=O)NCCC(=O)Nc3cccc(Cl)c3)CC2)cc1 | inconclusive [inhibitor, single point] | –
CC(=O)OCC1=C(C(=O)O)N2C(=O)C(NC(=O)COc3ccc(F)cc3)C2SC1 (configuration not stated) | inconclusive [inhibitor, single point] | –
COC(=O)c1cn(-c2nc3ccccc3s2)nn1 | – | inactive: -10.1%
Cc1ccc(C(c2cc(Cl)c3cccnc3c2O)N2CCN(C)CC2)cc1 (configuration not stated) | inconclusive [inhibitor, single point] | –
COc1ccc(C)cc1N(CC(N)=O)S(=O)(=O)c1ccc(C)cc1 | inconclusive [inhibitor, single point] | –
CN(C)c1ccc(NC(=S)c2ccccn2)cc1 | – | inactive: 17.8%
N#Cc1ccc(NC(=O)CNc2cc(S(=O)(=O)N3CCOCC3)ccc2NCC2CCCO2)cc1 (configuration not stated) | inconclusive [inhibitor, partial curve] | –
CC(=O)NN1C(=O)/C(=C/c2ccc(Br)o2)SC1=S | inconclusive [inhibitor, single point] | –
Cc1ccc(O)c(NC(=O)c2cc([N+](=O)[O-])ccc2Cl)c1 | inconclusive [inhibitor, partial curve] | –
COc1ccc(NS(=O)(=O)c2cc(NC(=O)c3ccc(C)o3)ccc2N2CCCCC2)cc1 | – | inactive: 20.2%

Structure (SMILES) | Potency | activity change, negative = inhibition
COc1cc(=O)[nH]c(SCC(=O)Nc2nc3c(s2)CCCC3)n1 | inconclusive [inhibitor, single point] | –
O=C(COc1ccc(F)cc1)NCc1ccc2c(c1)CCN2C(=O)c1ccc(F)cc1 | inconclusive [inhibitor, partial curve, poor fit] | –
O=C(/C=C/c1ccc(O)c(O)c1)OC(Cc1ccc(O)c(O)c1)C(=O)O (configuration not stated) | inconclusive [inhibitor, single point] | –
CC(C)CN1C(=O)/C(=C/c2ccco2)NC1=S | inconclusive [inhibitor, single point] | –
CCc1ccccc1NC(=O)CC(O)(C(=O)OC)C(F)(F)F (configuration not stated) | inconclusive [inhibitor, single point] | –
COc1ccc(CCNC(=O)c2ccn[nH]2)cc1OC | inconclusive [inhibitor, single point] | –
O=C(CSc1nc2c([nH]c3ccccc32)c(=O)n1-c1ccc(F)cc1)Nc1ccc2c(c1)OCO2 | – | inactive: -3.04%
O=c1[nH]n2c(=O)c3c([nH]c2c1N=Nc1ccccc1)CCC3 | inconclusive [inhibitor, single point] | –
C/C(=N\NC(=O)c1cccc(N/N=C(\C)c2ccccc2)c1)c1ccccc1 | inconclusive [inhibitor, single point] | –
Cc1ccc(C)c(-n2c(-c3ccc4c(c3)OCO4)n[nH]c2=S)c1 | inconclusive [inhibitor, partial curve, poor fit] | –
CCNC(=O)C1CCCN1S(=O)(=O)c1ccc(OC)cc1 (configuration not stated) | inconclusive [inhibitor, single point] | –
CCOC(=O)c1c(-c2ccc(C)o2)csc1NC(=S)NC(=O)c1ccccc1Br | – | inactive: 0.0701%
COc1cc(-c2nnc3n(CCc4ccccc4)c(=O)c4ccccc4n23)cc(OC)c1OC | – | inactive: -8.69%
CCOc1cc(/C=C2\C(=O)N(c3ccc(C(N)=O)cc3)N=C2C)ccc1OC(=O)c1cccs1 | inconclusive [inhibitor, partial curve, poor fit] | –
CCCn1c(SCC#N)nc2c(c1=O)C1(CCCC1)Cc1ccccc1-2 | – | inactive: 5.2%
COc1cccc(CNn2cnnc2)c1O | inconclusive [inhibitor, partial curve] | –
Cc1cc(NC(=O)CCCN2C(=O)c3cccnc3C2=O)no1 | inconclusive [inhibitor, single point] | –
c1ccc2c(c1)nnn2Cc1nnc2sc(-c3ccc4c(c3)OCCO4)nn12 | inconclusive [inhibitor, single point] | –
C(=N\Nc1nc2ccccc2[nH]1)/C1CCCCC1 | inconclusive [inhibitor, partial curve, poor fit] | –
Nc1nc(N2CCN(c3ccccc3)CC2)n[nH]1 | inconclusive [inhibitor, partial curve] | –
O=C(Nc1sc2c(c1C(=O)O)CCCC2)c1cccc(Cl)c1 | inconclusive [inhibitor, single point] | –
